Reference: the supplement of paper PMC9446081
Screen size: about 39,000 compounds; about 220 (0.56%) showed activity. The list shows a part of the results.

These compounds were tested on Escherichia coli K-12 BW25113 (assay: relative growth (OD600 normalised to plate interquartile mean) (fraction); higher = less growth inhibition, active = 0.2 or less). Conditions: 50 µM; LB; incubation time: overnight (16-24 h).
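Also: static incubation at 37 °C against the wild-type strain, values averaged over two biological replicates.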

SMILES	relative growth
CCNC(=O)C[C@@H]1C=C[C@@H](NC(=O)C2CCOCC2)[C@@H](CO)O1	inactive: 1.01
Cc1ccc(S(=O)(=O)Nc2cccc3c2O[C@@H](CN(C)Cc2ccc(Oc4ccccc4)cc2)[C@@H](C)CN([C@H](C)CO)C3=O)cc1	inactive: 1.02
Cc1noc(C)c1CO	inactive: 1.01
C[C@@H]1CN([C@H](C)CO)C(=O)c2cccc(NS(C)(=O)=O)c2O[C@@H]1CN(C)C(=O)Nc1ccccc1	inactive: 0.995
COC(=O)[C@@H]1CC(=O)O[C@H](C)C/C=C/C=C/[C@H](O)[C@H](C)C[C@H](CC=O)[C@H](O[C@H]2O[C@H](C)[C@@H](O[C@H]3C[C@@](C)(O)[C@@H](OC(=O)CC(C)C)[C@H](C)O3)[C@H](N(C)C)[C@H]2O)[C@H]1OC	inactive: 0.992
C[C@H]1CCCCO[C@@H](CN(C)C(=O)NC2CCCCC2)[C@@H](C)CN([C@@H](C)CO)C(=O)c2cc(NC(=O)c3ccncc3)ccc2O1	inactive: 1
C[C@H]1CCCCO[C@H](CN(C)C(=O)c2ccccc2)[C@@H](C)CN([C@@H](C)CO)C(=O)c2cc(NC(=O)Nc3ccc(F)cc3)ccc2O1	inactive: 0.938
COc1ccc(S(=O)(=O)N2C[C@@H](O)COC[C@H]3O[C@H](CC(=O)NCCCN(C)C)CC[C@@H]32)cc1	inactive: 1.02
C[C@H](CO)N1C[C@H](C)[C@H](CN(C)S(C)(=O)=O)Oc2ncc(C#CCN(C)C)cc2C1=O	inactive: 1
C[C@@H]1CN([C@@H](C)CO)S(=O)(=O)c2ccc(C#CCN(C)C)cc2O[C@@H]1CN(C)C	inactive: 0.987
C[C@@H]1CN([C@H](C)CO)C(=O)c2cc(NC(=O)NC3CCCCC3)ccc2O[C@H]1CN(C)Cc1ccc(Oc2ccccc2)cc1	inactive: 0.921
C[C@H]1CN([C@@H](C)CO)C(=O)Cc2cc(NC(=O)CCCCCC(=O)Nc3ccccc3N)ccc2O[C@H]1CN(C)Cc1ccc(Cl)c(Cl)c1	inactive: 0.979
COc1ccc(CN(C)C[C@H]2Oc3ccc(NC(=O)Nc4ccc(C(F)(F)F)cc4)cc3C(=O)N([C@H](C)CO)C[C@@H]2C)cc1	inactive: 0.976
CC(C)N(CCCNC(=O)Nc1ccc(C(C)(C)C)cc1)C[C@H]1O[C@@H](n2ccc3c(N)ncnc32)[C@H](O)[C@@H]1O	inactive: 0.977
CCOc1ccc(C(=O)Nc2ccc(S(=O)(=O)N3CCCC[C@@H]3c3cccnc3)cc2)cc1OCC	inactive: 1.01
C[C@@H]1CCCCO[C@@H](CN(C)Cc2ccc(C(=O)O)cc2)[C@H](C)CN([C@H](C)CO)C(=O)c2cc(NC(=O)Nc3ccc(C(F)(F)F)cc3)ccc2O1	inactive: 0.96
Nc1cc(CO)ccn1	inactive: 0.995
CNC(=O)c1c(O)c2ccccc2n(C)c1=O	inactive: 1.01
COc1ccccc1[C@@H](NC(=O)C1CCN(CCn2cnc3c2c(=O)n(C)c(=O)n3C)CC1)c1ccccn1	inactive: 0.988
C[C@@H]1CN([C@H](C)CO)C(=O)c2cc(NS(=O)(=O)c3ccc(Cl)cc3)ccc2O[C@@H](C)CCCCO[C@@H]1CN(C)C(=O)C1CCCCC1	inactive: 0.99
Cl.NC1C(O)OC(CO)C(O)C1O (centres undefined)	inactive: 1.19
C[C@@H]1CCCCO[C@H](CN(C)C(=O)Cc2ccccc2)[C@@H](C)CN([C@H](C)CO)C(=O)c2cc(NS(=O)(=O)c3ccc(Cl)cc3)ccc2O1	inactive: 1.03

SMILES	relative growth
COc1ccc(NC(=O)N(C)C[C@@H]2Oc3c(NC(=O)Nc4ccc(C(F)(F)F)cc4)cccc3C(=O)N([C@H](C)CO)C[C@H]2C)cc1	inactive: 0.798
CS(=O)(=O)NCc1cnc2n1CCN(C[C@H]1CCOC1)CC2	inactive: 0.996
C[C@@H]1CN([C@H](C)CO)S(=O)(=O)c2ccc(C#Cc3ccncc3)cc2O[C@@H]1CN(C)C(=O)C1CCC1	inactive: 0.979
COC(=O)c1[nH]c(C(=O)OC)c(O)c1O	inactive: 1
CC(C)CC#Cc1ccc2c(c1)O[C@H](CN(C)C(=O)c1cnccn1)[C@H](C)CN([C@@H](C)CO)S2(=O)=O	inactive: 0.945
C[C@@H]1CN([C@H](C)CO)C(=O)c2cc(NC(=O)Nc3ccc4c(c3)OCO4)ccc2O[C@@H](C)CCCCO[C@H]1CN(C)Cc1ccc2c(c1)OCO2	inactive: 1.01
C[C@@H]1CCCCO[C@H](CN(C)C(=O)CCC(F)(F)F)[C@H](C)CN([C@@H](C)CO)C(=O)c2cc(NC(=O)NC3CCCCC3)ccc2O1	inactive: 1.01
C[C@@H]1CN([C@@H](C)CO)C(=O)c2cccc(NC(=O)Nc3ccc(C(F)(F)F)cc3)c2O[C@H]1CN(C)Cc1ccc(Cl)c(Cl)c1	inactive: 0.916
CC(C)NC(=O)N(C)C[C@H]1OCCCC[C@H](C)Oc2ccc(NC(=O)Nc3ccc(C(F)(F)F)cc3)cc2C(=O)N([C@H](C)CO)C[C@@H]1C	inactive: 1.03
COc1ccccc1C(=O)Nc1ccc2c(c1)C(=O)N(C)[C@@H]1CC[C@H](CC(=O)NCc3ccc(Cl)c(Cl)c3)O[C@H]1CO2	inactive: 1.02
CC(C)NC(=O)N(C)C[C@@H]1Oc2cc(C#Cc3ccccn3)ccc2S(=O)(=O)N([C@@H](C)CO)C[C@@H]1C	inactive: 0.957
O=C(C[C@H]1CC[C@H]2[C@@H](COC[C@H](O)CN2S(=O)(=O)c2ccccc2)O1)N[C@@H]1CCN(Cc2ccccc2)C1	inactive: 0.98
COc1ccc(NC(=O)N(C)C[C@H]2OCCCC[C@H](C)Oc3ccc(NC(=O)CCC(F)(F)F)cc3C(=O)N([C@@H](C)CO)C[C@@H]2C)cc1	inactive: 0.992
C=C[C@@H](COC(=O)OC(C)(C)C)N(Cc1ccc(OC)cc1)S(=O)(=O)c1ccc(Br)cc1	inactive: 1.01
Cc1ccc(S(=O)(=O)N[C@@H]2C=C[C@H](CC(=O)NCCN3CCCCC3)O[C@@H]2CO)cc1	inactive: 1.01
O=C(N[C@@H]1CC(=O)N(C2CC2)C1)C1CCC1	inactive: 0.982
CC(C)N[C@H]1CCS(=O)(=O)C1	inactive: 0.972
COCCOC(=O)N1C(=O)[C@@]2(c3cc(C#CC4=CCCCC4)ccc31)[C@H](C(=O)N1CCc3cc(OC)c(OC)cc3C1)[C@H]1C(=O)O[C@H](c3ccccc3)[C@H](c3ccccc3)N1[C@@H]2c1ccc(O)cc1	inactive: 1.03
NCCOc1cccc(Cl)c1	inactive: 1.01
Cc1ccc(CN)s1	inactive: 1.02
Nc1nc(=O)c2ncn([C@H]3C[C@H](O)[C@@H](CO)O3)c2[nH]1	inactive: 0.997
COc1cccc(c1)CN1C[C@]2(CCN(CC2)S(=O)(=O)C)c2c(n(c3cc(ccc23)OC)C)[C@@H]1CO	inactive: 1.04

SMILES	relative growth
NCc1ccccc1N1CCC(CO)CC1	inactive: 0.975
COc1cccc(-n2cc(C(=O)NO)nn2)c1	inactive: 0.945
COc1ccc(S(=O)(=O)Nc2cccc3c2O[C@H](CN(C)C(=O)Nc2cccc4ccccc24)[C@H](C)CN([C@H](C)CO)C3=O)cc1	inactive: 0.983
C[C@@H]1CN([C@@H](C)CO)C(=O)c2cc(NC(=O)C3CCCCC3)ccc2O[C@@H]1CN(C)Cc1ccc(Cl)c(Cl)c1	inactive: 0.985
NCC1OC(OC2C(N)CC(N)C(OC3OC(CO)C(O)C(N)C3O)C2O)C(N)CC1O (centres undefined)	active: 0.0445
C[C@H](CO)N1C[C@H](C)[C@@H](CN(C)C(=O)Nc2ccc(C(F)(F)F)cc2)OCCCC[C@H](C)Oc2ccc(NS(=O)(=O)c3ccccc3)cc2C1=O	inactive: 0.984
CC(C)NC(=O)N(C)C[C@H]1Oc2ccc(NS(=O)(=O)c3cn(C)cn3)cc2C(=O)N([C@H](C)CO)C[C@@H]1C	inactive: 1.01
N[C@H]1CCC[C@@H]1Cc1ccc(F)cc1	inactive: 1.02
CC(C)Cc1ccc([C@@H](C)C(=O)Nc2ccc(Cl)cc2)cc1	inactive: 1.01
Cc1cccc(S(=O)(=O)N2C[C@@H](O)COC[C@@H]3O[C@@H](CC(=O)N4CCN(C)CC4)CC[C@H]32)c1	inactive: 1
C[C@H]1CN([C@@H](C)CO)C(=O)c2cccc(NS(=O)(=O)c3cn(C)cn3)c2O[C@@H]1CN(C)S(=O)(=O)c1cccs1	inactive: 1.01
COc1ccccc1CNC(=O)C[C@@H]1CC[C@H]2[C@@H](COC[C@H](O)CN2S(=O)(=O)c2ccc(C)cc2)O1	inactive: 1.01
C[C@@H]1CCCCO[C@H](CN(C)Cc2ccc(C(F)(F)F)cc2)[C@@H](C)CN([C@@H](C)CO)C(=O)c2cc(NC(=O)Nc3ccccc3)ccc2O1	inactive: 1.02
C[C@H]1CN([C@@H](C)CO)C(=O)c2cccc(NC(=O)Nc3cccc4ccccc34)c2O[C@@H]1CN(C)S(=O)(=O)c1ccccc1	inactive: 1.03
CO[C@H]1CN(C)C(=O)c2ccc(NC(=O)c3ccccc3)cc2OC[C@H](C)N(C(=O)CN(C)C)C[C@H]1C	inactive: 0.922
CCOC(=O)c1ccc(N)cc1	inactive: 0.968
C[C@@H]1CN([C@@H](C)CO)C(=O)c2cc(NC(=O)CCN3CCOCC3)ccc2O[C@@H]1CN(C)C(=O)Nc1ccc2c(c1)OCO2	inactive: 1
COc1ccc([C@@H]([C@H](Cc2ccccc2)OC(C)=O)N2C[C@@H](CC(=O)N(C)C)[C@@H]3[C@H]([C@@H]2Cc2ccccc2)N(C)O[C@H]3c2ccccc2)cc1	inactive: 1.02
C[C@@H]1CN([C@H](C)CO)C(=O)Cc2cc(NC(=O)CCN3CCOCC3)ccc2O[C@@H]1CN(C)Cc1ccncc1	inactive: 0.999
C[C@@H]1CN([C@@H](C)CO)C(=O)c2cccc(NC(=O)Nc3ccc(C(F)(F)F)cc3)c2O[C@H]1CN(C)Cc1ccc2c(c1)OCO2	inactive: 0.744
